# Laboratory results published in the supplement of paper PMC8728848.
# Some of the results follow.
# B1: AFCNVH (Aspergillus fumigatus) (protein)
# chain: MSLRGFHTTCDTIVLKDKHILSSRCKRPDGTYSFSEIDLNDCLGNNNGKFVWGGESFVDSASQVNLALEGGEGRPMLHAQLNDWHGSVQSASVNLGECIQNEAGGLEYMHC
# Legend:
# Assay in all cases: glycan array binding signal (z-score within array); higher = stronger binding
# Settings in all cases: glycan notation: IUPAC condensed, linker removed
# [1] = target: Fuc(a1-2)[Gal(a1-3)]Gal(b1-4)[Fuc(a1-3)]GlcNAc(b1-3)GalNAc
# How it was run: (§1)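 Glycan array data came from 3228 arrays in the Consortium for Functional Glycomics database, and only arrays with an available protein sequence were kept. Glycan names were put into IUPAC-condensed notation, and columns mapping to the same glycan were averaged. The binding signal is a within-array Z-score, averaged across arrays of one protein sequence run at different concentrations or buffers and across linkers. A negative Z-score can be read as non-binding.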
# [2] = target: Fuc(a1-2)[Gal(a1-4)]Gal(b1-4)GlcNAc
# How it was run: as §1
# [3] = target: Fuc(a1-2)[GalNAc(a1-3)]Gal
# How it was run: as §1
# [4] = target: Fuc(a1-2)[GalNAc(a1-3)]Gal(b1-3)GalNAc(a1-3)[Fuc(a1-2)]Gal(b1-4)GlcNAc
# How it was run: as §1
# [5] = target: Fuc(a1-2)[GalNAc(a1-3)]Gal(b1-3)GalNAc(b1-3)Gal(a1-4)Gal(b1-4)Glc
# How it was run: as §1
# [6] = target: Fuc(a1-2)[GalNAc(a1-3)]Gal(b1-3)GlcNAc
# How it was run: as §1
# [7] = target: Fuc(a1-2)[GalNAc(a1-3)]Gal(b1-3)GlcNAc(b1-2)Man(a1-3)[Fuc(a1-2)[GalNAc(a1-3)]Gal(b1-3)GlcNAc(b1-2)Man(a1-6)]Man(b1-4)GlcNAc(b1-4)GlcNAc
# How it was run: as §1
# [8] = target: Fuc(a1-2)[GalNAc(a1-3)]Gal(b1-3)GlcNAc(b1-2)Man(a1-3)[Fuc(a1-2)[GalNAc(a1-3)]Gal(b1-3)GlcNAc(b1-2)Man(a1-6)]Man(b1-4)GlcNAc(b1-4)[Fuc(a1-6)]GlcNAc
# How it was run: as §1
# [9] = target: Fuc(a1-2)[GalNAc(a1-3)]Gal(b1-3)GlcNAc(b1-3)GalNAc
# How it was run: as §1
# [10] = target: Fuc(a1-2)[GalNAc(a1-3)]Gal(b1-3)GlcNAc(b1-6)GalNAc
# How it was run: as §1
# [11] = target: Fuc(a1-2)[GalNAc(a1-3)]Gal(b1-4)Glc
# How it was run: as §1
# [12] = target: Fuc(a1-2)[GalNAc(a1-3)]Gal(b1-4)GlcNAc
# How it was run: as §1
# [13] = target: Fuc(a1-2)[GalNAc(a1-3)]Gal(b1-4)GlcNAc(b1-2)Man
# How it was run: as §1
# [14] = target: Fuc(a1-2)[GalNAc(a1-3)]Gal(b1-4)GlcNAc(b1-2)Man(a1-3)[Fuc(a1-2)[GalNAc(a1-3)]Gal(b1-4)GlcNAc(b1-2)Man(a1-6)]Man(b1-4)GlcNAc(b1-4)GlcNAc
# How it was run: as §1
# [15] = target: Fuc(a1-2)[GalNAc(a1-3)]Gal(b1-4)GlcNAc(b1-2)Man(a1-3)[Fuc(a1-2)[GalNAc(a1-3)]Gal(b1-4)GlcNAc(b1-2)Man(a1-6)]Man(b1-4)GlcNAc(b1-4)[Fuc(a1-6)]GlcNAc
# How it was run: as §1
# [16] = target: Fuc(a1-2)[GalNAc(a1-3)]Gal(b1-4)GlcNAc(b1-3)Gal(b1-4)GlcNAc
# How it was run: as §1
# [17] = target: Fuc(a1-2)[GalNAc(a1-3)]Gal(b1-4)GlcNAc(b1-3)Gal(b1-4)GlcNAc(b1-3)Gal(b1-4)GlcNAc
# How it was run: as §1
# [18] = target: Fuc(a1-2)[GalNAc(a1-3)]Gal(b1-4)GlcNAc(b1-3)GalNAc
# How it was run: as §1
# [19] = target: Fuc(a1-2)[GalNAc(a1-3)]Gal(b1-4)GlcNAc(b1-3)[Fuc(a1-2)[GalNAc(a1-3)]Gal(b1-4)GlcNAc(b1-6)]GalNAc
# How it was run: as §1
# [20] = target: Fuc(a1-2)[GalNAc(a1-3)]Gal(b1-4)GlcNAc(b1-6)GalNAc
# How it was run: as §1
# [21] = target: Fuc(a1-2)[GalNAc(a1-3)]Gal(b1-4)[Fuc(a1-3)]GlcNAc
# How it was run: as §1
# [22] = target: Fuc(a1-2)[GalNAc(a1-3)]Gal(b1-4)[Fuc(a1-3)]GlcNAc(b1-3)GalNAc
# How it was run: as §1
# [23] = target: Fuc(a1-2)[GalNAc(a1-4)]Gal(b1-4)GlcNAc
# How it was run: as §1
binder,measurement,setting,value
B1,glycan array binding signal (z-score),[1],-0.388
same,glycan array binding signal (z-score),[2],0.231
same,glycan array binding signal (z-score),[3],0.454
same,glycan array binding signal (z-score),[4],1.05
same,glycan array binding signal (z-score),[5],-0.408
same,glycan array binding signal (z-score),[6],-0.23
same,glycan array binding signal (z-score),[7],-0.535
same,glycan array binding signal (z-score),[8],-0.277
same,glycan array binding signal (z-score),[9],-0.328
same,glycan array binding signal (z-score),[10],-0.591
same,glycan array binding signal (z-score),[11],-0.022
same,glycan array binding signal (z-score),[12],1.16
same,glycan array binding signal (z-score),[13],-0.458
same,glycan array binding signal (z-score),[14],0.627
same,glycan array binding signal (z-score),[15],-0.346
same,glycan array binding signal (z-score),[16],1.86
same,glycan array binding signal (z-score),[17],0.21
same,glycan array binding signal (z-score),[18],-0.472
same,glycan array binding signal (z-score),[19],-0.285
same,glycan array binding signal (z-score),[20],0.403
same,glycan array binding signal (z-score),[21],-0.375
same,glycan array binding signal (z-score),[22],-0.186
same,glycan array binding signal (z-score),[23],3.32
